# Measured values published in the supplement of paper PMC8047034.
# Counter-ions that a name gives are not always drawn. The list shows a part of the results. Many values rest on one well or one pass, so single values are uncertain.
# Tested on: OVCAR4
# Assay: log2 surviving fraction (library drug vs vehicle, or drug + carboplatin vs carboplatin alone; relative to plate median); ovarian cancer lines: OVCAR4 is platinum-sensitive and Ov4Carbo platinum-resistant; higher = more cell survival
# Settings: library drug concentration 10 µM; 7 days; carboplatin co-treatment 0 µM
row,Structure (SMILES),log2 surviving fraction
1,"Cn1ccnc1S [Methimazole (Tapazole, Northyx)]",-3.38
2,COC1=C(OC)C(=O)C(CCCCCCCCCCO)=C(C)C1=O [Idebenone],-0.997
3,C[C@H]1C[C@H]2[C@@H]3CCC4=CC(=O)C=C[C@]4(C)[C@@]3(F)[C@@H](O)C[C@]2(C)[C@@]1(O)C(=O)CO [Betamethasone (Celestone)],0.58
4,C[C@@H](O)[C@H]1C(=O)N2C(C(=O)OCOC(=O)C(C)(C)C)=C(SC3CN(C4=NCCS4)C3)[C@H](C)[C@H]12 [Tebipenem pivoxil (L-084)],-0.405
5,O=C(Oc1ccccc1C(=O)O)c1ccccc1O [Sasapyrine],0.049
6,COc1ccc(CC(C)NCC(O)c2ccc(O)c(NC=O)c2)cc1 (centres undefined) [Formoterol hemifumarate],0.229
7,Oc1cc(O)c(Cl)cn1 [Gimeracil],1.14
8,C[C@]12C=CC(=O)C=C1CC[C@H]1[C@@H]3C[C@@H](O)[C@](O)(C(=O)CO)[C@@]3(C)C[C@H](O)[C@@]12F [Triamcinolone (Aristocort)],-0.0872
9,CN(C)CCOC(C)(c1ccccc1)c1ccccn1 (centres undefined) [Doxylamine Succinate],1.26
10,CN(C)CCC=C1c2ccccc2CCc2ccccc21 [Amitriptyline HCl],-2.19
11,CCOC(=O)N1CCC(=C2c3ccc(Cl)cc3CCc3cccnc32)CC1 [Loratadine],-0.568
12,COc1ccc(-c2nc3cc(C4=NNC(=O)CC4C)ccc3[nH]2)cc1 (centres undefined) [Pimobendan (Vetmedin)],-3.55
13,C#C[C@]1(O)CC[C@H]2[C@@H]3CCc4cc(OC)ccc4[C@H]3CC[C@@]21C [Mestranol],0.174
14,OC(c1ccccc1)(c1ccccc1)C1CCNCC1 [Azacyclonol],-0.691
15,COc1cc2nc(N3CCN(C(=O)C4CCCO4)CC3)nc(N)c2cc1OC (centres undefined) [Terazosin HCl (Hytrin)],0.567
16,CCn1cc(C(=O)O)c(=O)c2ccc(C)nc21 [Nalidixic acid (NegGram)],-0.344
17,CC=CC1=C(C(=O)O)N2C(=O)[C@@H](NC(=O)[C@H](N)c3ccc(O)cc3)[C@H]2SC1 [Cefprozil hydrate (Cefzil)],0.0627

row,Structure (SMILES),log2 surviving fraction
1,CCOc1nc2cccc(C(=O)O)c2n1Cc1ccc(-c2ccccc2-c2noc(=O)[nH]2)cc1 [Azilsartan (TAK-536)],0.779
2,Nc1ccc(O)c(C(=O)O)c1 [Mesalamine (Lialda)],0.000941
3,COc1c(N2C[C@@H]3CCCN[C@@H]3C2)c(F)cc2c(=O)c(C(=O)O)cn(C3CC3)c12 [Moxifloxacin hydrochloride],1.05
4,Cc1onc(-c2c(Cl)cccc2Cl)c1C(=O)N[C@@H]1C(=O)N2[C@@H]1SC(C)(C)[C@@H]2C(=O)O [Dicloxacillin Sodium],0.672
5,"Cn1cnc([N+](=O)[O-])c1Sc1ncnc2[nH]cnc12 [Azathioprine (Azasan, Imuran)]",-2.43
6,CCOc1ccc(NC(C)=O)cc1 [Phenacetin],-0.169
7,CC(C)(O/N=C(\C(=O)N[C@@H]1C(=O)N2C(C(=O)[O-])=C(C[n+]3ccccc3)CS[C@H]12)c1csc(N)n1)C(=O)O [Ceftazidime Pentahydrate],-0.284
8,NC(CO)(CO)CO [Trometamol],-0.686
9,O=C(NC(Cc1cc(=O)[nH]c2ccccc12)C(=O)O)c1ccc(Cl)cc1 (centres undefined) [Rebamipide],-0.383
10,O=C1NC(=O)C(c2ccccc2)(c2ccccc2)N1 [Phenytoin (Lepitoin)],0.22
11,N[C@@H](Cc1cc(I)c(Oc2cc(I)c(O)c(I)c2)c(I)c1)C(=O)O [L-Thyroxine],-0.365
12,CC(C)C(=O)Nc1ccc([N+](=O)[O-])c(C(F)(F)F)c1 [Flutamide (Eulexin)],-0.636
13,CC(C)C[C@H](NC(=O)[C@H](CCc1ccccc1)NC(=O)CN1CCOCC1)C(=O)N[C@@H](Cc1ccccc1)C(=O)N[C@@H](CC(C)C)C(=O)[C@@]1(C)CO1 [Carfilzomib (PR-171)],-8.18
14,NCCc1c[nH]c2ccc(O)cc12 [Serotonin HCl],1.35
15,CCCc1cc(=O)[nH]c(=S)[nH]1 [Propylthiouracil],0.0933
16,Cc1cc(=O)[nH]c(=S)[nH]1 [Methylthiouracil],0.35
17,Cc1cc2c(s1)Nc1ccccc1N=C2N1CCN(C)CC1 [Olanzapine (Zyprexa)],0.35
